Data: paper PMC3003444 (Chemistry & biology, 2010)
In brackets after ≈: the same amount, converted by molar mass.

Experiments:
[1] = system: Staphylococcus epidermidis; conditions: cited from earlier work
[2] = system: Staphylococcus haemolyticus; format: cell-based; conditions: lacks SPases with Pro^29
[3] = system: Streptococcus pyogenes; format: cell-based
[4] = system: human HeLa 229 cells
[5] = system: Rhodococcus equi; format: cell-based
[6] = system: Yersinia pestis; format: cell-based
[7] = system: Bacillus subtilis; format: cell-based
[8] = system: Klebsiella pneumoniae; format: cell-based
[9] = system: Streptococcus pneumoniae; format: cell-based

| SMILES | minimum inhibitory concentrations (MICs) [1] [µg/mL] | arylomycin susceptibility [2] | arylomycin susceptibility [3] | adverse effects on the human cells [4] | arylomycin susceptibility [5] | difference in sensitivities between R. opacus and R. equi [5] [fold] | arylomycin susceptibility [6] | arylomycin susceptibility [7] | arylomycin susceptibility [8] | arylomycin susceptibility [9] |
| --- | --- | --- | --- | --- | --- | --- | --- | --- | --- | --- |
| CC(C)CCCCCCCCC(=O)N(C)[C@H](CO)C(=O)N[C@H](C)C(=O)NCC(=O)N(C)[C@@H]1C(=O)N[C@@H](C)C(=O)N[C@H](C(=O)O)Cc2ccc(O)c(c2)-c2cc1ccc2O [arylomycin A2, reference compound] | 1.0 (≈ 1.21 µM) | – | – | – | – | – | – | – | – | – |
| CCCCCCCCCCCCCCCC(=O)N(C)[C@H](CO)C(=O)N[C@H](C)C(=O)NCC(=O)N(C)[C@@H]1C(=O)N[C@@H](C)C(=O)N[C@H](C(=O)O)Cc2ccc(O)c(c2)-c2cc1ccc2O [arylomycin C16] | 0.25 (≈ 0.284 µM) | sensitive | sensitive | no adverse effects | sensitive | 8 | sensitive | resistant | resistant | sensitive |
